# Source: the supplement of paper PMC4604168 (melanoma cell lines)
# The other results are listed elsewhere or left out. Repeats are few or missing, and single values can be far off.
# Columns and labels:
# Assay in all cases: cell count relative to DMSO control; melanoma cells; higher = more viable cells
# Conditions in all cases: library dose: low library concentration; 72 h
# COLO792 = system: COLO792
# COLO800 = system: COLO800
# COLO829 = system: COLO829
# G361 = system: G361
# IPC-298 = system: IPC-298
# IST-MEL1 = system: IST-MEL1
# LB2518-MEL = system: LB2518-MEL
# LOXIMVI = system: LOXIMVI
# MEL-HO = system: MEL-HO
# 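Further: cell number obtained by counting DAPI-stained nuclei in high-throughput microscope images with image analysis software, screen run in 1,536-well plates.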
Compound,cell count (COLO792) [%],cell count (COLO800) [%],cell count (COLO829) [%],cell count (G361) [%],cell count (IPC-298) [%],cell count (IST-MEL1) [%],cell count (LB2518-MEL) [%],cell count (LOXIMVI) [%],cell count (MEL-HO) [%]
"CS(=O)(=O)CCNCc1ccc(-c2ccc3ncnc(Nc4ccc(OCc5cccc(F)c5)c(Cl)c4)c3c2)o1 [lapatinib] + CCc1ccc(CCOc2ccc(CC3SC(=O)NC3=O)cc2)nc1 [pioglitazone] (first compound 0.8 µM, partner dose 2 µM)",82.3,79.5,90.1,106,98.3,98,87,79.5,90.7
"C=CCNC1=C2C[C@@H](C)C[C@H](OC)[C@H](O)[C@@H](C)/C=C(\C)[C@H](OC(N)=O)[C@@H](OC)/C=C\C=C(/C)C(=O)NC(=CC1=O)C2=O [Tanespimycin] + COc1ccc(-c2ccc3c(N4CCOCC4)nc(N4C[C@@H](C)O[C@@H](C)C4)nc3n2)cc1CO [KU0063794] (first compound 0.002 µM, partner dose 0.02 µM)",97.2,96.9,99.9,107,91.6,100,–,80.5,89.4
"CN1CCN(c2ccc3nc(-c4c(N)c5c(F)cccc5[nH]c4=O)[nH]c3c2)CC1 [Dovitinib] + O=C1NC(=O)/C(=C/c2ccc(-c3ccc(F)cc3O)o2)S1 [AS252424] (first compound 0.1 µM, partner dose 1 µM)",94.3,78.2,84.1,91.9,96.3,103,87.9,124,94.2
"C[C@@H](Oc1cc(-c2cnn(C3CCNCC3)c2)cnc1N)c1c(Cl)ccc(F)c1Cl [Crizotinib] + O=C(Nc1ccccc1)c1cc([N+](=O)[O-])ccc1Cl [GW9662] (first compound 0.2 µM, partner dose 2 µM)",96,97.1,73.4,113,101,97.6,–,109,96
"CN1CCN(c2ccc3nc(-c4c(N)c5c(F)cccc5[nH]c4=O)[nH]c3c2)CC1 [Dovitinib] + NCC(=O)Nc1ccc(-n2nc(C(F)(F)F)cc2-c2ccc3c(ccc4ccccc43)c2)cc1 [OSU03012] (first compound 0.1 µM, partner dose 1 µM)",83.9,75.7,77.9,93.5,86.4,91.6,107,82,101
"C=CCNC1=C2C[C@@H](C)C[C@H](OC)[C@H](O)[C@@H](C)/C=C(\C)[C@H](OC(N)=O)[C@@H](OC)/C=C\C=C(/C)C(=O)NC(=CC1=O)C2=O [Tanespimycin] + NCC(=O)Nc1ccc(-n2nc(C(F)(F)F)cc2-c2ccc3c(ccc4ccccc43)c2)cc1 [OSU03012] (first compound 0.002 µM, partner dose 1 µM)",103,90.1,100,100,87.5,92.1,93.9,96.8,92.7
"CS(=O)(=O)CCNCc1ccc(-c2ccc3ncnc(Nc4ccc(OCc5cccc(F)c5)c(Cl)c4)c3c2)o1 [lapatinib] + CCCCCCCCCCCC1=C(O)C(=O)C=C(O)C1=O [Embelin] (first compound 0.8 µM, partner dose 1.2 µM)",82.9,106,103,113,104,104,109,128,80.4
"CNC(=O)c1cc(Oc2ccc(NC(=O)Nc3ccc(Cl)c(C(F)(F)F)c3)cc2)ccn1 [sorafenib] + CC(C)CCN1c2nc(Nc3cc(F)c(O)c(F)c3)ncc2N(C)C(=O)C1C [BID1870] (first compound 0.4 µM, partner dose 0.2 µM)",101,166,116,95.8,86.3,98.3,–,112,100
"CS(=O)(=O)CCNCc1ccc(-c2ccc3ncnc(Nc4ccc(OCc5cccc(F)c5)c(Cl)c4)c3c2)o1 [lapatinib] + CN(C)S(=O)(=O)c1ccc2c(c1)/C(=C/c1cc3c([nH]1)CCCC3)C(=O)N2 [SU6656] (first compound 0.8 µM, partner dose 0.4 µM)",90,87.2,79.4,103,106,88.5,101,417,101
"CN1CCN(c2ccc3nc(-c4c(N)c5c(F)cccc5[nH]c4=O)[nH]c3c2)CC1 [Dovitinib] + N#Cc1c(O)c2c(-c3ccc(-c4ccccc4O)cc3)csc2[nH]c1=O [A769662] (first compound 0.1 µM, partner dose 2 µM)",105,59,93.5,107,102,93.2,98.8,84,100
"CS(=O)(=O)CCNCc1ccc(-c2ccc3ncnc(Nc4ccc(OCc5cccc(F)c5)c(Cl)c4)c3c2)o1 [lapatinib] + COc1cc2ncnc(Nc3ccc(Oc4ccccc4)cc3)c2cc1OC [SrcI1] (first compound 0.8 µM, partner dose 2 µM)",89.6,113,93.2,87.6,96.7,99.1,141,112,88.7
"CS(=O)(=O)CCNCc1ccc(-c2ccc3ncnc(Nc4ccc(OCc5cccc(F)c5)c(Cl)c4)c3c2)o1 [lapatinib] + CO[C@@H]1[C@H](N(C)C(=O)c2ccccc2)C[C@H]2O[C@]1(C)n1c3ccccc3c3c4c(c5c6ccccc6n2c5c31)C(=O)NC4 [Midostaurin] (first compound 0.8 µM, partner dose 0.08 µM)",97.2,87.8,81.3,90.5,83,90.1,98.4,79.1,93.2
